Data from article PMC4336329 (PLoS ONE, 2015).
About 2,200 (0.71%) of roughly 310,000 compounds showed an effect of 50% or more. Effects have a minus sign here. Some of the results follow.

molecular target: human ether-à-go-go-related gene (hERG) potassium channel (human, UniProt Q12809); assay: primary screen, population patch clamp on CHO cells stably expressing hERG
Sequence (Q12809 whole entry, looked up): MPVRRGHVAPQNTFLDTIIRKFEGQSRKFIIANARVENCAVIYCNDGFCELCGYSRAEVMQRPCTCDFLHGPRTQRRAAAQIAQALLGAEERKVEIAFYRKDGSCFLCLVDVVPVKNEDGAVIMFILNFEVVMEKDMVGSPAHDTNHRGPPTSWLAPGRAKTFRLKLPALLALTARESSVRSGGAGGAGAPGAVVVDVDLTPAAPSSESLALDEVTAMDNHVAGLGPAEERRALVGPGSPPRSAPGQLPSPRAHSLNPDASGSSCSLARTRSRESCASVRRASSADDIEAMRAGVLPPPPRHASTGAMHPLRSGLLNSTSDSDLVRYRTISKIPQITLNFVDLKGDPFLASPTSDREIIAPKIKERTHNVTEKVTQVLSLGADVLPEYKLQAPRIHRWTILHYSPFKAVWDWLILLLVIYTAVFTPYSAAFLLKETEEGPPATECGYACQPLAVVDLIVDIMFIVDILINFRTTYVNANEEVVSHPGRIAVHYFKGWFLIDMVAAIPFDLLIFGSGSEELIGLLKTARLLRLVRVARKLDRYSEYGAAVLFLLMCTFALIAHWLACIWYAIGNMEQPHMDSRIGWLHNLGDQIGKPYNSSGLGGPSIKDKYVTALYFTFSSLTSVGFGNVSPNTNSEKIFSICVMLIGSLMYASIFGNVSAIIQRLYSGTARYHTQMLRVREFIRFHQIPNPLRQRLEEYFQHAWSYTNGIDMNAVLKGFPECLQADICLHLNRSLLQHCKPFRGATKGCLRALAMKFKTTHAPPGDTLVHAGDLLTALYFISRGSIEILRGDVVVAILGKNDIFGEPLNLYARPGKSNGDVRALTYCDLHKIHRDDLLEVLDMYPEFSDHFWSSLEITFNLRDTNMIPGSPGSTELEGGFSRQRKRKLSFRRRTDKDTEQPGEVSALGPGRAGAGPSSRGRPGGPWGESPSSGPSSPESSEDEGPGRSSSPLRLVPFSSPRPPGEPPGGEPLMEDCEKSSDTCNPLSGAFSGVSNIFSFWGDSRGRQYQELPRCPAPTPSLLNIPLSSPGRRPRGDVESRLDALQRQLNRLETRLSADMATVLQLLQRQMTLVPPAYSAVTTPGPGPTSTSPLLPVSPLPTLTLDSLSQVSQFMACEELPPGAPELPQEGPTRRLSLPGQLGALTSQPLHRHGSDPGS

Row | SMILES | hERG current change (%, negative = inhibition) at 1uM [%]
1 | COc1ccc(CCNC(=O)c2cccc(S(=O)(=O)N3CCCC3)c2)cc1OC | 18.9
2 | O=C(Cn1nc(CNc2ccc(Cl)cc2)[n+]2c1CCCCC2)c1ccc(Br)cc1.[Br-] | -13.3
3 | CC(=O)C1=C(c2ccc(Br)cc2)C(=O)c2ccccc2C1=O | 4.5
4 | CCCCc1ccc(NC(=O)COc2ccc(C(=O)Nc3ccccc3C)cc2)cc1 | 12.1
5 | Fc1ccc(CN2CCN(c3ncccn3)CC2)cc1 | 9.13
6 | CC1(C2CC2)NC(=O)NC1=O (centres unmarked) | -1.24
7 | O=C(/C=C/c1ccco1)Nc1nc(-c2ccc(F)c(F)c2)cs1 | 9.53
8 | O=C(c1cccs1)N1CCN(S(=O)(=O)c2ccccc2)CC1 | 6.69
9 | CCOC(=O)c1c(C)c(C)n(Cc2cccc(OC)c2OC)c1C | 8.24
10 | O=C(OCC(=O)N1CCCC1)c1ccccc1C(=O)c1ccccc1 | 5.6
11 | CCN(c1ccccc1)S(=O)(=O)c1ccc(Cl)c(NC(=O)COC(=O)c2ccc[nH]c2=O)c1 | 9.39
12 | C/C(N)=C(/C#N)C(=O)CSc1nc2ccccc2c(=O)n1-c1ccc(C)cc1 | 5.23
13 | CCOC(=O)c1cc(C)sc1NC(=O)c1ccc(Cl)s1 | -3.63
14 | CCCC(=O)Nc1cc(-c2nnc(OC)c3ccccc23)ccc1N1CCCCC1 | -2.95
15 | COC(=O)CCN1CCc2cc(N=Nc3ccc([N+](=O)[O-])cc3)ccc21 | 18
16 | COc1ccc(NC(=O)c2[nH]c(C)c(C(C)=O)c2C)cc1Cl | 3.57
17 | Cc1ccc(N2CCN(C(=O)c3cccc([N+](=O)[O-])c3)CC2)cc1Cl | 12.5
18 | CCCNc1nc(OC(C(F)(F)F)C(F)(F)F)nc(OC(C(F)(F)F)C(F)(F)F)n1 | 0.303
19 | O=C1NC(=S)N(C(=O)c2ccc(F)cc2)/C1=C/c1ccccc1 | 10.6
20 | Cc1cc(C)n2nc(SCc3ccccc3F)nc2n1 | 14.1
21 | CCOc1ccc(N2C(=O)CC(NCC#N)C2=O)cc1 (centres unmarked) | 12.4
22 | O=c1c2[nH]cnc2n(-c2cccc(F)c2)c(=O)n1Cc1ccccc1 | 9.6
23 | CS(=O)(=O)N(CC(=O)Nc1cccnc1)c1ccc2c(c1)OCO2 | 9.05

Row | SMILES | hERG current change (%, negative = inhibition) at 1uM [%]
24 | O=C(Nc1ccc(F)cc1)c1cccnc1NCCc1ccccc1 | 13.2
25 | N#CCCn1cc(C(N)=O)c(-c2cccs2)n1 | 15.4
26 | COc1ccc(CCn2ccc(O)c(Cc3ccc(Cl)cc3)c2=O)cc1OC | 3.53
27 | O=C(Nc1ccccc1Cl)NC1(C(=O)NCc2cccnc2)CCCCC1 | 14.2
28 | O=C1C(=O)N(CCN2CCOCC2)C(c2cccnc2)/C1=C(/O)c1ccc(Cl)cc1 (centres unmarked) | 15.3
29 | CN(C)C(=O)CSc1nnc(-c2cc(-c3cccs3)nc3ccccc23)o1 | 18.1
30 | CCN1C(=O)C(CC(=O)Nc2ccc(F)cc2)N(CCc2ccc(OC)cc2)C1=S (centres unmarked) | 8.45
31 | COc1cc(OC)c(OC)cc1/C=N/NC(=O)CC1C(=O)NN=C1C (centres unmarked) | 2.12
32 | Cc1cc(C)n2c(SCC(=O)Nc3ccc(F)cc3)nnc2n1 | 8.14
33 | COc1ccc2[nH]c(CN3CCN(CC(C)C)C(CCO)C3)c(C)c2c1 (centres unmarked) | 5.18
34 | O=C(N/N=C/C(Br)=C/c1ccccc1)c1ccccc1[N+](=O)[O-] | 13
35 | Cc1nonc1NC(=O)CSc1nc(CCC2CCCC2)nc2ccccc12 | 2.07
36 | O=[N+]([O-])c1ccc(N=Cc2sc3ccccc3c2O)cc1 | 6.38
37 | Cc1cc(Cc2ccc([N+](=O)[O-])cc2)c(C)cn1 | -2.88
38 | COc1ccccc1-n1c(SC(C)C(=O)NCC2CCCO2)nc2cc(Cl)ccc2c1=O (centres unmarked) | 12.1
39 | COc1cc(NC(=O)CN2CCN(c3ccccc3O)CC2)c(C)cc1[N+](=O)[O-] | 23.6
40 | COc1cccc(-c2c(C(=O)N/N=C/C3CC=CCC3)nnn2-c2nonc2N)c1 (centres unmarked) | 12.2
41 | Cc1ccc2nc(C3CCCCC3)[nH]c2c1 | 4.59
42 | Fc1ccc(CSc2ncnc3c2oc2ccccc23)cc1 | 5.5
43 | CCN(CC)S(=O)(=O)c1cc(NC(=O)CSc2nccn2C)ccc1C | 12.9
44 | NC(=O)c1ccsc1NC(=O)COC(=O)c1ccc(Cl)nc1 | 15.4
45 | O=C(O)c1ccccc1C(=O)NCCCCCCNC(=O)c1ccccc1C(=O)O | 7.98
46 | COc1ccc(NC(=O)C23CCC(C)(C(=O)O2)C3(C)C)cc1 (centres unmarked) | 0.126

Row | SMILES | hERG current change (%, negative = inhibition) at 1uM [%]
47 | CCOC(=O)CCc1c(C)c2ccc(OCc3nn[nH]n3)cc2oc1=O | 13.4
48 | CN1CCC(OC(=O)COc2ccc(Br)cc2)CC1.Cl | -6.88
49 | CCOC(=O)C1(C(C)(C)CC)CC(CSc2nc3ccccc3[nH]2)OC1=O.Cl (centres unmarked) | 6.93
50 | COc1cccc(-c2nc3n(n2)C(c2ccccc2Cl)C(C(N)=O)=C(C)N3)c1 (centres unmarked) | 6.26
51 | Cc1ccc(C(=O)NNc2c3ccccc3nc3ccccc23)cc1 | 4.58
52 | COc1ccc(NC2SC(=O)N(C)C2=O)cc1 (centres unmarked) | 11
53 | Cc1c(CCO)c(=O)[nH]n1C(=O)c1c(F)cccc1F | 4.97
54 | COc1ccc(CNc2ccccc2SC)cc1OC | 8.44
55 | CN1CCN(CCCCOc2ccccc2-c2ccccc2)CC1.O=C(O)C(=O)O | 16.8
56 | COc1ccc(NC(=O)COc2cccnc2[N+](=O)[O-])cc1OC | 15.8
57 | Cc1ccccc1-c1nnn(CC(=O)c2ccc(S(=O)(=O)N3CCCC3)cc2)n1 | 10.7
58 | O=C(NC1CC1)C1CC(=O)N(c2ccc(F)cc2)C1 (centres unmarked) | 20.1
59 | O=C(c1cc(Br)c[nH]1)N1CCCCC1 | 5.06
60 | COc1cccc(/C=C2\SC(=S)N(CCC(=O)NC3C=CS(=O)(=O)C3)C2=O)c1 (centres unmarked) | 13.2
61 | COC(=O)C(C)N1CCC(=O)c2ccccc2S1(=O)=O (centres unmarked) | 16.4
62 | CCNCCNC(=O)c1c(O)c2ccccc2n(CC)c1=O.Cl | 15.9
63 | Cc1nc2n(c(=O)c1CCN1CCC(c3noc4cc(F)ccc34)CC1)CCCC2 | -37.3
64 | O=C(Nc1ccccc1CC[N+](=O)[O-])N1CCN(c2ccccc2)CC1 | 9.41
65 | COc1ccc(Cc2nnc(NC(=O)c3cccc(F)c3)s2)cc1OC | 13.6
66 | Cc1nc2cc(C(=O)N3CCC4(CC3)OCCO4)ccc2n1-c1ccc(Br)cc1 | -0.812
67 | NC(N)=NC(N)=Nc1ccc2ccccc2c1 | 15.4
68 | CCCn1c(SCC(=O)N2c3ccc(F)cc3CCC2C)nnc1-c1ccccn1 (centres unmarked) | 5.59
69 | Cc1nn(-c2ccccc2)c2c1C(=O)N(Cc1ccccc1)C(=O)C(C)(C)C2 | -0.735

Row | SMILES | hERG current change (%, negative = inhibition) at 1uM [%]
70 | COc1ccc(NC(=O)c2ccccc2OCc2c(C)noc2C)cc1OC | -9.44
71 | O=C(c1cccc2cccc(O)c12)N1CCCCC1 | 0.37
72 | O=C(OCc1nnc(-c2ccccc2)o1)c1ccc2c(c1)OCCO2 | 1.76
73 | COC(=O)C1=C(C)NC(C)=C(C(=O)OC)C1C(=O)OCC(=O)c1ccc(Br)cc1 | 4.37
74 | COc1cc(CN2CCC(C(=O)N3CCC(C)CC3)CC2)cc(Br)c1O.O=C(O)C(=O)O | 7.15
75 | CCOc1ccc(NC(=O)CSc2nnc(C3CC3)n2N)cc1 | 14.8
76 | CCC(=O)NNC(=O)CCC(=O)Nc1ccc(C)cc1C | 6.39
77 | COc1ccccc1N1CCN(C(=O)CCCC2=NS(=O)(=O)c3ccccc3N2)CC1 | 6.38
78 | CCOC(=O)c1ccc(NC(=O)Cn2nnc(-c3ccccc3C)n2)cc1 | 2.64
79 | CC(Sc1n[nH]c(=O)[nH]c1=O)C(=O)OCc1ccccc1 (centres unmarked) | 11.6
80 | CC(C)Oc1ccccc1-c1cc(C(=O)N/N=C/c2cccnc2)c2ccccc2n1 | 8.24
81 | COc1ccc(N2CCN(c3nc4cc(C)ccc4cc3C=O)CC2)cc1 | 13.5
82 | C=C(C)c1cccc(C(C)(C)NC(=O)NC2CCCC2)c1 | 5.23
83 | CSC1=C(C#N)C(=O)NC(c2ccccc2O)S1 (centres unmarked) | 12.8
84 | COc1cc2c(cc1OC)C(c1cccc([N+](=O)[O-])c1)=NCC2 | 11.8
85 | CCOc1ccc(NC(=O)CCN2CCN(C)CC2)cc1 | 10.5
86 | CCOc1cc(C(=O)N2CCOCC2)ccc1OCc1ccccc1 | 10.7
87 | COc1ccc(Oc2c(Cl)cnn(-c3ccc(Cl)c(Cl)c3)c2=O)cc1 | 7.61
88 | CC(C)(C)c1ccc(NC(=O)C2=CC=CN3CCS(=O)(=O)N=C23)cc1 | 1.77
89 | Cc1ccc(CNC(=O)c2ccc(N3CCC4(CC3)CC(c3cccc(Br)c3)=NO4)c(NC(=O)c3ccco3)c2)cc1 | 12.2
